In the supplement of paper PMC11417369:
± gives the standard deviation of the averaged measurements. This is one part of the list.

tested on: PfAP2-LT AP2 domain (GST-tagged); assay: gcPBM binding intensity (ln(normalized median fluorescence intensity)); higher = stronger DNA binding
Outline: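 GST-fused DNA-binding domains of P. falciparum, expressed in E. coli, were applied at about 25 μg on average for 1 h to an Agilent 4 × 180k array of primer-extended double-stranded 36-bp intergenic genomic probes and negative controls. Binding intensity is the highest Masliner-normalised natural-log median intensity across replicate spots of either probe orientation, measured with Alexa488 anti-GST antibody and a 488 nm scan.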

Sequence | gcPBM binding intensity (ln)
GTTTATAACTATGTGTGTACACATTAATCGTTTTTC [XGTACX_site4364] | 9.24 ± 0.54
AATATATTTATATAGTGTACATTTTTTATATATGTA [XGTACX_site8142] | 8.69 ± 0.35
TATTAATTTTTATTATGTACATAAATAATTTATATT [XGTACX_site5456] | 8.56 ± 0.4
CACATACACATACACATACACACGCATAGAAACATA [CACACA_site2136] | 9.71 ± 0.28
TTGTATAAATATGTATGTATATAATATATGTAAAGA [TGCATGCA_negctrl_site93] | 8.66 ± 0.38
AAATCGTGTACATTGACACACATAATTTTTTTTATA [CACACA_site2463] | 8.78 ± 0.36
GGACACCTTCAAAACACACATACAAATAAATAGAAA [CACACA_site3305] | 8.97 ± 0.54
ATATAAATATATATATGTACATAATATATTATGTTT [XGTACX_site2806] | 8.81 ± 0.48
AATTTAACCACTAAAAGTACACACATATATACATAT [XGTACX_site8352] | 9.15 ± 0.45
TCCTTTTTACTACTAGTGCATTATTTACAAGGTCCG [GTGCAC_site9441] | 8.69 ± 0.52
AATGTGTATATATATACACACACATATATATATTTT [CACACA_site8596] | 9.54 ± 0.18
ATATATATAAAATATTATATTAAAAAAAATAAAATA [GTGCAC_negctrl_site87] | 8.4 ± 0.55
TAGTTTTTTATATATTGTACTTAGAATATATTATAT [XGTACX_site3662] | 8.65 ± 0.47
AGGATAATATACAAAAGTACATAAAACTAAAAAAAC [XGTACX_site605] | 9.09 ± 0.54
AAAGAAAGAAAGAATACACACACACCGATATATATA [CACACA_site9246] | 9.77 ± 0.31
AACATATATTTTGAAACACACACATATATAATATAC [CACACA_site8301] | 9.27 ± 0.3
TTTTATATATAATTCACACAAAAAAGATACATAAGA [CACACA_site5332] | 8.54 ± 0.4
ACAACACATATTCATCGTACATGTATTAGGAAGACA [XGTACX_site1859] | 9.04 ± 0.42
ATAAAAATATAATTGAGTACATATGAATAGTCCTAT [XGTACX_site6281] | 8.65 ± 0.42

Sequence | gcPBM binding intensity (ln)
ATTTTGTTTTTTTTTGCACACCATAAGGAGTGTAGG [CACACA_site1414] | 8.96 ± 0.34
TAAGCAAAAATAATTACACACAAATTTATAAAAAAT [CACACA_site3377] | 8.96 ± 0.41
TATATAAAAATATGTTGTACGCATTTATAAATATAT [XGTACX_site3758] | 8.68 ± 0.4
GGTGTATGTTAAAGGAGTACATATATATATATATAT [XGTACX_site7727] | 9.85 ± 0.37
TATTTTTATTTATAACGTACGAAAAATGTATATAAT [XGTACX_site703] | 8.54 ± 0.43
CATACACATTTCATATGTACATAGATTGAAGGGAAG [XGTACX_site116] | 8.93 ± 0.41
TAGTATTTATATGTTATATATATAAAATAATACAGT [XGTACX_negctrl_site571] | 8.86 ± 0.48
ATATCTAATAAAAATACACACACATATGATTTGTGA [CACACA_site8558] | 9.06 ± 0.35
TATATAGAATTATATGCATGTTCAAAAAAATACAAC [TGCATGCA_site431] | 8.72 ± 0.39
AATAGTTCTTGAACGTGTACATAAAATATAATTTAC [XGTACX_site11] | 8.72 ± 0.43
TTCTATTTTTTAAAAGTGCATATTATAAATATATAT | 8.39 ± 0.54
GAAATCTAAATAGAAACACACATATATAAATAAATA [CACACA_site7762] | 8.83 ± 0.57
GAATAATCCAAACACACACACACACCCGAATAAATA [CACACA_site482] | 10.3 ± 0.45
TGTGTATAAATATACACACACATATAAATATTTTAA [CACACA_site7005] | 9.09 ± 0.35
TATTTAAAAAATAATACACACATAATATAACAAAAT [CACACA_site3174] | 9.06 ± 0.38
ACATATAATATAAATTGTACATATAAATATATTATT [XGTACX_site4268] | 8.71 ± 0.39
TTTACAACATCAAAATGTACGCATTATTATTATTAA [XGTACX_site3017] | 8.48 ± 0.43
TGGAGGTCAGTTCACAGTACCCAGGAAATCTGCGGA [XGTACX_site2556] | 8.53 ± 0.47
ATGCATAATATACTCTTACACACCATTTCTATATAC [CACACA_site1461] | 9.21 ± 0.4

Sequence | gcPBM binding intensity (ln)
TTCACTTTTTTTTTTTTTTTTTTTTTTTTTTTTATT [GTGCAC_negctrl_site350] | 8.47 ± 0.57
TATAACATAGGACACACACACATACATACACAAAAA [CACACA_site5062] | 9.88 ± 0.41
TCATATATTTTATACATACACACATATATATATTTT [CACACA_site3941] | 9.12 ± 0.48
ACGTTATACACAGTACGTACATAACTATCTAAATGT [XGTACX_site5068] | 8.98 ± 0.29
TTTTTTTTTTTTTTTTTTTTTTTTTTGTTCAGGCCT [GTGCAC_negctrl_site143] | 8.2 ± 0.57
ACGTAATAAAATAGTTGTACAACTTTTTATAATATA [XGTACX_site4393] | 8.67 ± 0.4
AAACGATTAATGTGTACACACATAGTTATAAACCTA [CACACA_site2110] | 9.23 ± 0.45
TATATATATATTATATGTACGTATGTATGTATATAT [XGTACX_site6451] | 8.88 ± 0.3
TCATAAATATGAAAAAGTACAAAGGTAGATTTTGAA [XGTACX_site4535] | 8.71 ± 0.5
ATAAATATCTAGGGTTCACACATTATATATCTGTAT [CACACA_site5702] | 8.92 ± 0.47
CGTGAATATATGATATGTACTTATAAAAATTTGTGC [XGTACX_site5480] | 8.72 ± 0.4
ACAAAGTTATAATTCTTGCACTTTAAGGTTCATTTA | 8.62 ± 0.5
GGTATACACAAGTATACACACATATATATATATATA [CACACA_site9063] | 10.16 ± 0.099
TTTTCCTCTTAAAATATACACACTGATTTAAGAAAA [CACACA_site3301] | 8.31 ± 0.33
AGTAACAAAAGAAAAAAATATGCAAACATATATATA [XGTACX_negctrl_site468] | 8.82 ± 0.54
TTCATTTTTTGCTTTCAACACACATACAATATATAT [CACACA_site9369] | 8.96 ± 0.52
AGAAATATATATATATATATATATATATATATATAT [TGCATGCA_negctrl_site375] | 10 ± 0.3
TTTTTCTTTTTTTCTTTTTTTATAAAACTTAATTGT [CACACA_negctrl_site384] | 8.51 ± 0.56
AAAAAAAAAAAAAAATATATATATATATACATACAT [CACACA_negctrl_site317] | 8.89 ± 0.3
